# From the RNAGym collection of RNA variant scans (doi:10.7554/elife.90254)
# The source gives no read counts; variants with many changes may rest on few reads.
# B1: LINE1-mini (parent)
# chain: GGCAGAGCUCAACACAGCGUGGCAAAGUGGCUGUGGCUAGACUGCC
# Variants of: B1
# Test: self-cleavage, relative activity (ratio to wild type); higher = more cleavage; in vitro, sequencing; the parent is a self-cleaving ribozyme
row,Variant,self-cleavage
1,GGAAGACCUCAACACAGCGGGGCAAAGUGGCUGUGGCUAGACUGCC,0.05
2,GGCAGAGCUGAACAUAGCGUGGCAAAGUGUCUGUGGUUAGACUGCC,0
3,GGCAGAGCUCAACACCGCGAGGCAAAGUAGCUGUGGCUAGACUGCC,0.58
4,GGCAGAGCUCAACACAGCGUGGUAACGUGGCAGUGGCUAGAGUGCC,0.05
5,GGCAAAGCUGAACACAGCGUGGCAAAGUGGCUGUGGCUGGACUGCC,0.02
6,GGCAGAGAUCAACACAGCGUGGCAAAGUGGCUGUGGCUAGAAAGCC,0.27
7,UGCAGAGCGCAACACAGCGUGGCAAAGUGGCUGUAGCUAGACUGCC,0.02
8,GGCAGAACUCAACACAGCGUCGCAAAGUGGCUAUAGCUCGACUGCC,0.23
9,GGCAGAGUUCAACACAGCGUGGCAAUGUGGCUGCGGCUAGACUGCC,0.11
10,GCGAGAGCUCAACACAGCGUAGCAAAGUGGCUGUCGCUAGUCUGUC,0.02
11,GGCAGAGCUCAACACAGCGUGGCAAGGGGGAUGUGCCUAGACUGCC,0.01
12,GGCGGAGCUCCACACCGCGUGGCAAAUUGGCUGUGGCUAGACUGCC,0.02
13,GAAAGAGCUCAACACAGCGUGGCAAAGUGGCUGCGGCUAGACUGCC,0.56
14,GGCAGAGCACAACACAACGUGGCAAAGUGGUUGUGGCUAGACUGCC,0.01
15,GGCUGAGCUCAAUACCGCGUGGCAAAGUGGCAGUGGCGAGACUGCC,0.01
16,GGCAGAGCUCUACACAGCGUGGCAAAGUGGCUGUGGCUACACCGCC,0.02
17,GGCGGAGCUCAACACAGCGUGGCAAAGUGGAUGGGGCUAGACUGCC,0.03
18,GGCAGAGCUAUACACAGCGAGGCAAAGUGGCUGUGGCCAGAGUGCC,0
19,GGAAGGGCUCAGCACAGCAUGGCAAAGUGGCUGUGGGUAGACUGCC,0.01

row,Variant,self-cleavage
1,GGCAGAGCUCAACACAGCGCGGCAAAGUGGCUGUGGCUACACUGUC,0.17
2,GGCAGAACUCAACACAGCAUGGCAAAGUGACUGCGGCUAGACUGCC,0.28
3,GGCAGAGAUCAACACAGCGCGGCAAAGUGGCUGUGGCUAGACUGCA,0.11
4,GGCAGAGCUCAACACAGCGUGGCAAACUGGGUCUUGCUAGACCGCC,0.02
5,GGCAGAGCUUAACACCGCGCGGAAAAGUGGCUGUGGCUAGACUGCC,0.11
6,GACAGAGCUCAACACAGAGUGGCAAAGUGGUUGUGGCUAGACUGCC,0.02
7,GGCAGAGCUCAAAGCAGCGUGGCAAAGCGGCUGUGGCUAGUCUGCC,0.13
8,GACCGAGAUCAACACCUCGUAGCAAAGUGGCUGGGGCUAGACUGGC,0.17
9,CGCAGAGCGCAACAAAGCGUGGCAAGGUGGCUUUGGCUAGACCGCC,0.01
10,GGCAGAGCUCAACCCAGCGUGGCAAAGUGGCUGUGGCCAGAGUGCC,0.19
11,GGCAGAGCUCAACACUUAUUGGCAAAGUGGCUGUGGCUAGACUGCC,0.08
12,GGCAGAGCUCAACACUGCGUGGCAAAGUGCCUGUGGCCAGACUGCC,0.32
13,GGCAGAGCUCAACAUAUUGUGGCAAAGUGGCUGUGGCUAGACUGCC,0.05
14,GCCAGAGCUCAACACAGCGUAGUAAAGUGGCUGUCGCUAGACCGCC,0.32
15,GGCAGAGCUCAACACAGCGUUGCAAGGUGGCUGUGGGUUCACUGCC,0.01
16,GGCAGUGGUCAACACAGCGUGGCAAAGAGGCUGUGGCUAGACUGCC,0.07
17,GGCAGAGCUCAACACAGCGUGGCAAAGGCGCUGUGAAUAGACUGCC,0.01
18,GGCAGAGGUCAAUACAGCGAGGAAAAGUGGCUGUGGCAAGACUGCC,0.03
19,AGCAGAGCUCAAGCCAGCGUUGCAAAGUGGCUGGGGCUAGACUGCC,0.01

row,Variant,self-cleavage
1,GGCAGUAUUCAACACAGCGUAGCAAAGUGGCUCUGGCUAGACUGCC,0.58
2,GACAGAGCUCAACACAGCGUGGCAAAGUUGCUGUAGCUAGAAUGGC,0.13
3,GGCAGAGGGCAACGCAGCGUGGCAGAGUGGCUGUGGCAAGACUGCC,0.05
4,GGCAGAGUUCAAGACAGCGUGGCAAAGUGGCUGUGGCUAGACUGCU,0.08
5,GGCAGAGCUCAACACAGCGUGCCAAAGUGGCUCUGACUAGACUGCC,0.02
6,GGCAGAGCUCAACACAACGUGGCAAAUUGGCUGAGUCUAGACUGCC,0.02
7,GGCAGAGGUCUACACAGCGUGGCAAAGUGGCUGUGUCUAGACUGCA,0.01
8,GGCAGAACUUAACACAGGGUGGCAAAGUGCCUGUGGCAAGACUGCC,0.01
9,GGAAGAGCUCAACACAGCGUGGAAAAGUGGCAGUGUCUAGACUGCC,0.22
10,GGCAGAGCUCAACCCAGCGAGGCAAAGUGGCUGUCGCUAGACGGCC,0.23
11,GGCAGAGCUCAACACAGCGUGGCAAACUGGUAGUGGCUAAACUGCC,0.03
12,AGCAUAGCUCAAUACAGCGUGGCAAAGUUGCUGUGGCUAGACUGCC,0.06
13,CGCAGAGCUCAACACAGCGUGGAAAAGGGGCUGUGGCUAGACUGCC,0.11
14,GGCAGAGCUCAGCAAUGCGUGGCAAAGUAGCGGAGUUUAGACUGCC,0.03
15,GGCAGAGCUCAACAUAGCCUGGCAAAGUGGCUGUUGGUACACUGCC,0.02
16,GGCAGAGCUCAACACAGCGUGGCAACUUGGCUGUGGCUAGCCUGCC,0.02
17,GGCAGAGCUGAACACAGCGUAGCAAAGUAGCUGUGGCUAGACUGCC,0.06
18,GGCAGACCUCAACACAGCGUGGCCAAGUGGCUGUUGCUAGACUGCC,0.15
